Experimental data reported in PMC4336329 (PLoS ONE, 2015).
About 14,000 (4.5%) of roughly 310,000 compounds showed an effect of 50% or more. The effect is printed as a negative number. This is one part of the list.

target: human ether-à-go-go-related gene (hERG) potassium channel (human, UniProt Q12809); test: primary screen, population patch clamp on CHO cells stably expressing hERG
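Further: peak tail current of the secondary pulse compared with the same well before compound.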

Sequence of human ether-à-go-go-related gene (hERG) potassium channel (Q12809 whole entry, looked up): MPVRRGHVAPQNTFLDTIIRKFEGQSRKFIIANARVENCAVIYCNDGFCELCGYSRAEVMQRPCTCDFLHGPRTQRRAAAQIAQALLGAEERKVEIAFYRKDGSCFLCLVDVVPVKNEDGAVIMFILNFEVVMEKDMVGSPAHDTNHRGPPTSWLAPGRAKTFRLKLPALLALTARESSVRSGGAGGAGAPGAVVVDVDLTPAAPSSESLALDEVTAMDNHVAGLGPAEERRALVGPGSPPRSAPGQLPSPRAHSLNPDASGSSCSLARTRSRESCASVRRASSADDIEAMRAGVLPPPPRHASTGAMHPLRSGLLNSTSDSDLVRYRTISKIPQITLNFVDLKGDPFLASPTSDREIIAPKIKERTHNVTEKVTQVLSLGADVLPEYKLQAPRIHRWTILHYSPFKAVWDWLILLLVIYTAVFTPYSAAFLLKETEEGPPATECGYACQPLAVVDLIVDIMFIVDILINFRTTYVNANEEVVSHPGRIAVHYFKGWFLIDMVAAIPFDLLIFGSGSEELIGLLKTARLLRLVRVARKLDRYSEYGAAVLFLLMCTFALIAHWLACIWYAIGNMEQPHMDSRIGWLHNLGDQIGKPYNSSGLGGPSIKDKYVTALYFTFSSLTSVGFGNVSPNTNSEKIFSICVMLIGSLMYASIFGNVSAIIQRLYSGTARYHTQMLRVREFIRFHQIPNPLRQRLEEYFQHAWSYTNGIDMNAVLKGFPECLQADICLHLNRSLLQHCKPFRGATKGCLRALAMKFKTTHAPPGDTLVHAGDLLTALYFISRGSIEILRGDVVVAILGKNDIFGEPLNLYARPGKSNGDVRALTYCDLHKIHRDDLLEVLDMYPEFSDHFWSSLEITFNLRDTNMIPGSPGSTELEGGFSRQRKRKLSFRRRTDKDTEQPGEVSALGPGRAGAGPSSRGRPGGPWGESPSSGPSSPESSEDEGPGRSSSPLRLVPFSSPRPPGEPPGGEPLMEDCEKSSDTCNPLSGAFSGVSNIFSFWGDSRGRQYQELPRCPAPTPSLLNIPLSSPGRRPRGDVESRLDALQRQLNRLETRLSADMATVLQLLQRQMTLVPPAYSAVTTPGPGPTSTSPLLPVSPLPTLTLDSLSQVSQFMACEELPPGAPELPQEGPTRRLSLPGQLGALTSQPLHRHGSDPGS

| Structure (SMILES) | hERG current change (%, negative = inhibition) at 10uM |
| --- | --- |
| CC/C(O)=C1\C(=O)CC(C)(C)CC1=NCCc1nc2ccccc2[nH]1 | 7.76% |
| O=C1c2ccccc2S(=O)(=O)c2cc(C(=O)N3CCN(c4ncccn4)CC3)ccc21 | 3.25% |
| COc1cc(Cl)cc(C#N)c1OCC(=O)O | 11% |
| Cc1ccc(NC(=O)Cc2nnc(SCC(=O)Nc3nncs3)n2C)cc1 | -1.48% |
| COc1cc(C(F)(F)F)nc2ccc(C#CCOC(=O)Nc3ccccc3)cc12 | 13.7% |
| CC(Oc1ccc(Cl)cc1Cl)/C(N)=N/O (stereo not shown) | 8.02% |
| Cc1cc(=O)oc2c(CN3CCCC3)c(O)ccc12 | 28.3% |
| O=c1[nH]c(=O)n(Cc2ccccc2)c2nc(-c3ccco3)cc(C(F)(F)F)c12 | 29.6% |
| COC(=O)CCN(C(=O)c1cc(OC)c(OC)c(OC)c1)c1ccccn1 | 6.81% |
| COC(=O)c1sc(-c2cccs2)cc1NC(=O)/C=C/C(=O)O | 7.29% |
| COc1ccc(-c2csc3nc(-c4ccc(C)cc4)oc(=O)c23)cc1OC | 3.27% |
| NS(=O)(=O)c1ccc(CCNC(=O)CCCn2ncn3c(cc4occc43)c2=O)cc1 | 24.3% |
| O=C(NCCN1C(=O)S/C(=C\c2cccnc2)C1=O)c1cc(S(=O)(=O)N2CCOCC2)ccc1F | -59% |
| O=C1OCc2ccc(NC(=O)c3sccc3Cl)cc21 | 8.11% |
| O=C(O/N=C(/c1ccccc1)c1ccncc1)c1ccc(F)cc1 | 17.1% |
| O=c1c2ccccc2nnn1CSc1nnc(COc2ccc(Cl)cc2)n1Cc1ccco1 | -22.2% |
| CC1CC1c1ccc(/C=C(\C#N)C(=O)Nc2ccccc2Cl)o1 (stereo not shown) | -1.1% |
| CCC(C)Sc1nnc(NS(=O)(=O)Cc2ccccc2)s1 (stereo not shown) | 18.7% |
| COC(=O)c1scc(C)c1N/N=C(\C)c1cc(F)c(Cl)cc1F | 16.6% |
| Cc1ccc(NC(=O)c2cc(S(=O)(=O)NCCc3ccccc3)ccc2F)cc1Cl | 8.85% |
| CN(C)c1ccc(/C=C/[N+](=O)[O-])cc1 | -1.81% |
| NC(=O)CSc1nnc(Cn2c(=O)sc3ccccc32)n1-c1cccc(Cl)c1 | 13.4% |

| Structure (SMILES) | hERG current change (%, negative = inhibition) at 10uM |
| --- | --- |
| Cn1c(NC(=O)c2ccc(F)c(F)c2)cc(=O)n(C)c1=O | 7.06% |
| CC(C)(C)OC(=O)NCCC(=O)N/N=C/c1ccc2ncccc2c1 | 10.6% |
| CN(C)CCNc1nc2c(c(=O)[nH]c(=O)n2C)n1CCOc1ccccc1 | -5.88% |
| CCOC(=O)c1ccc(NC(=O)COc2ccccc2CNCCO)cc1 | -24% |
| CCN(CC)S(=O)(=O)c1ccc(N2CCCC2)c(NC(=O)C2=NN(c3ccccc3)C(=O)CC2)c1 | -32.3% |
| N#Cc1ccccc1/C=N/Nc1nc(-c2ccccc2)c2cc(Cl)ccc2n1 | -46.3% |
| Cc1cc(/C=C2/C(=N)N3C(=NC2=O)SN=C3S(C)(=O)=O)c(C)n1-c1ccc(F)cc1 | 47.6% |
| CC1CCN(c2ccc3nnc(CCC(=O)Nc4cccc(F)c4)n3n2)CC1 | -38.1% |
| CCOC(=O)c1cc(OC(=O)c2ccccc2OC)n(-c2ccccc2)n1 | -6.17% |
| Cc1cc(C)cc(OCC(=O)OCC(=O)NC2CCCCCC2)c1 | 21.1% |
| Cc1nc2cc(N)ccc2n1C1CCCCC1.Cl | -6.16% |
| N#Cc1ccc(CSc2nc(N)cc(N)n2)cc1 | 4.35% |
| CCOc1ccccc1N1C(=O)CC(Sc2n[nH]c(-c3ccccc3)n2)C1=O (stereo not shown) | 11.5% |
| COc1ccccc1/C=N/NC(=O)c1nnn(-c2nonc2N)c1-c1ccccc1 | 10.3% |
| CN(C)P(=O)(Nc1cccc2ccccc12)Nc1cccc2ccccc12 | 18% |
| Cc1ccc(S(=O)(=O)NC(C)C(=O)NCc2ccc(Cl)cc2)cc1 (stereo not shown) | -27.5% |
| CC1(C)CC(=O)C2=C(C1)N(c1ccccc1)C(N)=C(C#N)C2c1ccsc1 (stereo not shown) | -9.75% |
| Nc1nc2nccc(-c3ccco3)n2n1 | 21.1% |
| CC(C)c1ccc(NS(=O)(=O)c2ccc(N3C(=O)CCC3=O)cc2)cc1 | 1.76% |
| O=C(Cn1ccc([N+](=O)[O-])n1)N1CCCCC1 | -8.27% |
| COC(=O)c1ccc(Cn2nnc3c(=O)[nH]c(C4CCCN(S(=O)(=O)c5ccccc5Cl)C4)nc32)cc1 (stereo not shown) | 10.9% |
| COc1cc(OC)cc(C(=O)NNC(=O)C2CCCC2)c1 | 6.14% |

| Structure (SMILES) | hERG current change (%, negative = inhibition) at 10uM |
| --- | --- |
| COC(=O)c1ccc(CSc2nc3c(c(=O)n2-c2ccc(C)cc2)SCC3)o1 | -5.12% |
| OCCC1CN(Cc2cccn2-c2ccccn2)CCN1C1CCCC1 (stereo not shown) | -18.9% |
| COc1cccc(NC(=O)NC2CCN(Cc3nnnn3Cc3ccc4c(c3)OCO4)CC2)c1 | -23.3% |
| CN(C)Cc1c(O)ccc2cc(-c3nc4ccccc4n3C)c(=O)oc12 | 10.2% |
| CCOc1cc(NC(=O)Nc2ccc(F)cc2)c(OCC)cc1NC(=O)CC | 19.2% |
| CCOC(=O)c1cn(-c2ccc(F)c(F)c2F)c2c(F)c(F)c(F)cc2c1=O | 13.4% |
| Brc1ccc(-c2noc(COc3ccc4c(c3)CCC4)n2)o1 | 6.23% |
| CCCS(=O)(=O)N1CCN(C(=O)c2cccnc2)CC1 | 10.6% |
| N/C(=N\S(=O)(=O)c1ccc(Cl)cc1)N1CCOCC1 | 8.51% |
| Cc1cc(C)c2c(c1)/C(=N/NS(=O)(=O)c1ccccc1)CCC2 | 7.48% |
| CCCC(c1nnnn1Cc1ccc2c(c1)OCO2)N1CCC(C(N)=O)CC1 (stereo not shown) | 18.2% |
| CCn1c(SCC(=O)N/N=C/C=C\c2ccccc2[N+](=O)[O-])nnc1-c1ccccc1 | -67% |
| O=C(CCC1CCCN(c2ncccn2)C1)NCc1ccccc1F (stereo not shown) | -4.03% |
| CSc1ccc(C2Nc3ccccc3-c3cc(C)nn32)cc1 (stereo not shown) | -3.75% |
| COc1ccc(CC(=O)Nc2cccc(C)n2)cc1OC | 21.3% |
| O=C(/C=C/c1ccc(S(=O)(=O)N2CCOCC2)cc1)NCCc1ccc(C(F)(F)F)cc1 | 3.05% |
| COc1cc(OC)c2cc(C(=O)N[C@@H](Cc3ccccc3)C(=O)O)n(C)c2c1 | 8.47% |
| CCc1nn(-c2cc(Oc3cccc4ccccc34)nc(-c3ccccc3)n2)c(N)c1C#N | 23.3% |
| CCN(CC)CCN=Cc1c(O)n(CCc2ccccc2)c(=O)[nH]c1=O | -23.7% |
| O=C(O)C1(c2cccc(Cl)c2)CCC1 | 6.99% |
| O=C(O)c1cc(N=Nc2c(O)[nH]c3ccc([N+](=O)[O-])cc23)ccc1Cl | 10.2% |
| CC(C)(C)NC(=O)CN(C(=O)C(=O)Nc1ccc2c(c1)OCCO2)N1CCOCC1 | -8.72% |

| Structure (SMILES) | hERG current change (%, negative = inhibition) at 10uM |
| --- | --- |
| O=c1c2ccccc2ncn1/N=C/c1ccccc1 | 30.6% |
| CC(=O)Nc1ccc(NC(=O)CNC(=O)c2cccc(C)c2)cc1 | -4.54% |
| COc1ccc(C2N(c3ccc(Cl)cc3)C(=O)C3CCCN32)cc1 (stereo not shown) | -8.51% |
| Cc1nnc(SCc2nnc(-c3ccccc3Br)o2)n1-c1ccccc1 | -14.6% |
| Fc1ccc(NC(=S)Nc2nccs2)cc1 | -16.1% |
| CCOc1nc(N=C(N)N)nc2c(C)cccc12 | 2% |
| COc1cc(C(=O)Nc2cccc(-c3nnc(-c4ccco4)o3)c2)ccc1OC(C)=O | -42.6% |
| CCOc1cc(O)c(-c2[nH]ncc2-c2nc(C)cs2)cc1CC | 3.54% |
| CCn1cc(Cl)c(C(=O)Nc2ccccc2C(N)=O)n1 | -7.91% |
| Cc1nc2ccc(NC(=O)c3ccc([N+](=O)[O-])cc3)cc2s1 | 0.891% |
| CC(=O)N1c2ccc(S(=O)(=O)NCC3CCC(C(=O)NC4CCCCC4)CC3)cc2CC1C (stereo not shown) | 12.5% |
| Cc1ccc(C)c2c(N)c3c(nc12)CCCCC3.O=C(O)c1cncc(Br)c1 | -88.4% |
| CCc1cc(-c2nc(N)ncc2-c2ccc(Br)cc2)c(O)cc1OC | 10% |
| O=C(/C=C/c1cn(-c2ccccc2)nc1-c1cccnc1)c1ccco1 | -12% |
| O=C(CN1CCN(S(=O)(=O)c2ccc(Br)cc2)CC1)Nc1ccc2c(c1)OCO2 | -62.4% |
| COc1ccc(CC(=O)NCc2ccccn2)cc1OC | 9.93% |
| Cc1ccc(-n2ncc3c(NCc4ccco4)ncnc32)cc1C | -1.7% |
| CCOc1ccccc1C(=O)N/N=C/c1c[nH]c2ccccc12 | 26.3% |
| CN(C(=O)CSc1nnc(-c2ccc(Cl)cc2)n1CC1CCCO1)C1CCS(=O)(=O)C1 (stereo not shown) | -0.671% |
| C/C(=N\Nc1ncc(Cl)cc1Cl)c1ccc2c(c1)OCO2 | 9.57% |
| CCn1c(SCC(=O)NCC(=O)Nc2ccc(F)cc2)nnc1-c1ccncc1 | 0.83% |
| CC(C)N(C(=O)NC(=O)NCC1CCCO1)S(C)(=O)=O (stereo not shown) | 10.5% |
